Screen size: about 350,000 compounds; about 9,900 (2.8%) were called active. Inconclusive results, whose numbers are uncertain, are shown with a selection of clear calls. The call rests on the fitted dose curve; in most records, active means well fitted activation curve with a large enough effect; inconclusive means small, poorly fitted or top-dose-only effect; inactive means no such curve, though single readings can be large or run the other way. Potencies of inconclusive entries are left out as doubtful fits.
Experiment: A quantitative high throughput screen for small molecules that induce DNA re-replication in MCF 10a normal breast cells. Further: nearly all actives have a fitted effect of over 50% in size. On activity, positive = re-replication: % of control where 0% means no effect.
Conditions: MCF 10A DNA re-replication, Hoechst nuclear intensity, 48 h; activity, positive = re-replication: at 46.1 µM (top of the series)
Potency means the concentration at half of the fitted maximal effect; tags describe the fitted curve by direction and shape.

SMILES | Potency | activity, positive = re-replication
COCCCNC(=S)NNC(=O)c1ccccn1 | inconclusive [activator, single point] | 
O=[N+]([O-])c1ccc(-c2ccc(/C=N/Nc3nc(NCc4ccccc4)nc(N4CCOCC4)n3)o2)cc1 | active: 7.31 µM | 
CCn1c(COc2ccccc2)nnc1SCC(=O)Nc1cc(OC)ccc1OC |  | inactive: 3.09%
COc1ccc(CN2CCCC(C(=O)Nc3cccc(-n4cccn4)c3)C2)c(F)c1 (centres undefined) | inconclusive [activator, partial curve, poor fit] | 
CC1CCCN(C(=O)c2cc3c(=O)n4ccccc4nc3s2)C1 (centres undefined) | inconclusive [activator, partial curve] | 
CCN(CC)CCNC(=O)c1ccc(N2CCCCC2)c(NS(=O)(=O)c2ccc(C)cc2)c1 |  | inactive: 5.46%
C=CCNC(=S)Nc1cccc(N)c1 | inconclusive [activator, partial curve, poor fit] | 
Cc1ccc(CCSc2ccc(C(C)C)cc2)cn1 | inconclusive [activator, partial curve] | 
O=C(OC1CCCCC1)c1ccc(NC(=O)C2CCCCC2)cc1 | inconclusive [activator, single point] | 
Cc1cccnc1NC(=O)c1cccc(S(=O)(=O)N2CCCc3ccccc32)c1 |  | inactive: 11.2%
c1ccc(CNc2nc(-c3ccccc3)nc3ccccc23)cc1 |  | inactive: 8.95%
O=C(NC1CCCCCC1)c1ccc(Cl)c(S(=O)(=O)N2CCOCC2)c1 | inconclusive [activator, single point] | 
Cc1ccc(C(=O)Nc2nc(C(C)(C)C)cs2)s1 | inconclusive [activator, single point] | 
COc1ccc(C(=O)/C(C#N)=N/Nc2cccc([N+](=O)[O-])c2)cc1 | inconclusive [activator, partial curve] | 
O=[N+]([O-])c1cccnc1N1CCC(c2cc(-c3ccc(Cl)cc3Cl)n[nH]2)CC1 | inconclusive [activator, partial curve, poor fit] | 
COc1cc(OC)cc(C(=O)NC2CC(C)(C)NC(C)(C)C2)c1 |  | inactive: -3.28%
COc1ccc(N(CC(=O)Nc2cc(C)ccc2C)S(=O)(=O)c2ccccc2[N+](=O)[O-])c(OC)c1 |  | inactive: 7.11%
CN(C)CCN(C(=O)c1ccccc1Cl)c1nc2c(Cl)cccc2s1 | inconclusive [activator, partial curve, poor fit] | 
O=C(CCNC(=O)c1ccc(Br)cc1)NNC(=O)c1ccccc1O | inconclusive [activator, single point] | 
Cc1cnc(NC(=O)c2cc(-c3ccccc3)nn2-c2ccccc2)s1 |  | inactive: -3%
C/C=C\C=C\C(=O)Nc1cccc(C2=NOC3(C2)C[C@H](C(N)=O)N(C(=O)c2ccccc2C(=O)c2ccccc2)C3)c1 (some centres undefined) | inconclusive [activator, single point] | 
CC(C)C(=O)Nc1ccc(C(=O)Nc2ccc(S(=O)(=O)N3CCOCC3)cc2)cc1 | inconclusive [activator, single point] | 

SMILES | Potency | activity, positive = re-replication
COc1ccccc1C/C(N)=N/OC(=O)c1cccs1 |  | inactive: -1.59%
CCOP(=O)(OCC)C(NC(=O)c1cc([N+](=O)[O-])cc([N+](=O)[O-])c1)C(F)(F)F (centres undefined) | inconclusive [activator, single point] | 
Cc1ccc(-n2c3nc(=O)[nH]c(=O)c-3cc3cc([N+](=O)[O-])ccc32)cc1 | inconclusive [activator, single point] | 
CN(C)c1ccc(NC(=O)CCCc2ccccc2)cc1 |  | inactive: 0.743%
Cc1ccc(C)c(S(=O)(=O)C(C#N)c2nc3ccccc3nc2N2CCOCC2)c1 (centres undefined) | inconclusive [activator, single point] | 
CCCCCn1c(=S)[nH]c2cc(C(=O)N3CCN(C(=O)OCC)CC3)ccc2c1=O | inconclusive [activator, single point] | 
CC(C)(C)c1ccc(C(=O)NCC(=O)OCC(=O)Nc2ccc3c(c2)OCCO3)cc1 |  | inactive: 11.4%
CN(C)S(=O)(=O)c1ccc(C(=O)OCCc2ccccc2)cc1 | inconclusive [activator, single point] | 
S=c1[nH]nc(-c2cnccn2)n1-c1ccccc1 | inconclusive [activator, partial curve, poor fit] | 
O=C(CCn1nc(-c2ccc(F)cc2)ccc1=O)NCc1ccccc1 |  | inactive: -2.72%
CCNC(=S)Nc1ccc(Cl)cc1 |  | inactive: 3.09%
CCN1CCN(Cc2nc3cc(NC(=O)COc4ccc([N+](=O)[O-])cc4)ccc3n2C)CC1 | inconclusive [activator, partial curve, poor fit] | 
CCC(C(=O)N1CCCC1)n1nc(C)c2c(C)n(-c3ccccc3)nc2c1=O (centres undefined) |  | inactive: -0.441%
Brc1ccc(Cn2c(-c3ccc(Br)o3)nc3ccccc32)o1 | inconclusive [activator, single point] | 
C=CCSc1nnc(NC(=O)CSc2nc3ccccc3[nH]2)s1 |  | inactive: 0.851%
CCOc1ccc(-c2cc(C(=O)NCC3CCCO3)c3ccccc3n2)cc1 (centres undefined) | inconclusive [activator, full curve, poor fit] | 
Fc1ccc(/C=N/NC(=S)Nc2cccnc2)cc1F |  | inactive: -2%
COc1ccc(C2C(C#N)=C(N)Oc3n[nH]c(C)c32)cc1Cn1nnc2ccccc21 (centres undefined) | inconclusive [activator, single point] | 
N#C/C(=C\c1ccccc1OCc1ccc(C(=O)O)cc1)C(=O)Nc1ccc(O)cc1 | active: 23.1 µM | 
CSC1=NCCN1C(=O)C12CC3CC(CC(C3)C1)C2 | inconclusive [activator, full curve, poor fit] | 
COc1cc(C(=O)NC2CCN(C)CC2)ccc1Nc1ncc2c(n1)N(C1CCCCC1)CCC(=O)N2C | active: 0.651 µM | 
CC(C)(C)c1ccc(S(=O)(=O)N2CCC(c3nc4ccc(Cl)cc4[nH]3)CC2)cc1 | inconclusive [activator, full curve, poor fit] | 
